From publication PMC4336329 (PLoS ONE, 2015)
Out of some 310,000 compounds screened, about 2,200 (0.71%) showed an effect of 50% or more. The effect is printed as a negative number. The list shows a part of the results.

Biological target: human ether-à-go-go-related gene (hERG) potassium channel (human, UniProt Q12809)
Assay: primary screen, population patch clamp on CHO cells stably expressing hERG

human ether-à-go-go-related gene (hERG) potassium channel, sequence (Q12809 whole entry, looked up): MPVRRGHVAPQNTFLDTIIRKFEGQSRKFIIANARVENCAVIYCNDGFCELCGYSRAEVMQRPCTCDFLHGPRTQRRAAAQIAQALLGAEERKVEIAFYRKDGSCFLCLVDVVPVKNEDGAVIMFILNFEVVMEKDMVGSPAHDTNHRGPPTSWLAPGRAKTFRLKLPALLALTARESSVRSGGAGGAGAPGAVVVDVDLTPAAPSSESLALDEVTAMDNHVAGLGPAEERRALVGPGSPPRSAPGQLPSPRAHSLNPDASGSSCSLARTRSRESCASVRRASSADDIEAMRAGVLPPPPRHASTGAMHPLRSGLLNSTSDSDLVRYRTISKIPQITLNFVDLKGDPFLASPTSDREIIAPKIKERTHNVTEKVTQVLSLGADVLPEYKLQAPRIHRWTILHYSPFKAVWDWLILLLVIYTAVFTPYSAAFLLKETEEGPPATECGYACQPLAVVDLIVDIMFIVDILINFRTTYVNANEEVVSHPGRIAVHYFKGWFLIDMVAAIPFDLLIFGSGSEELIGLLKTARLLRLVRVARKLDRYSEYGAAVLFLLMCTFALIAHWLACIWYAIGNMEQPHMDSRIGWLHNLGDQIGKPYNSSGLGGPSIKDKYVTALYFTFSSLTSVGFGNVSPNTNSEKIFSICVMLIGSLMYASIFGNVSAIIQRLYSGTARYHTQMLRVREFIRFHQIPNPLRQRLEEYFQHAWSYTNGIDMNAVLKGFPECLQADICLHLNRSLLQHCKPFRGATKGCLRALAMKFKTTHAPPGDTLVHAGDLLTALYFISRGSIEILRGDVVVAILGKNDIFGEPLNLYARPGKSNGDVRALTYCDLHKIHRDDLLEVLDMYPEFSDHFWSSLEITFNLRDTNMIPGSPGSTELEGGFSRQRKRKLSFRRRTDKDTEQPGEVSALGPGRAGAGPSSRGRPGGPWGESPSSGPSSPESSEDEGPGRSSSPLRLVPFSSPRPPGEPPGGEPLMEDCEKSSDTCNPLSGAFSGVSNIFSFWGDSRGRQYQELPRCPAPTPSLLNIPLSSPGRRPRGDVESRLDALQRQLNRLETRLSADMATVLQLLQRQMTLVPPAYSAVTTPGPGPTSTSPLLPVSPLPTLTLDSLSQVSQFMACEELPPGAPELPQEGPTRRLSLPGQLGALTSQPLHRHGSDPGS

Structure (SMILES) | hERG current change (%, negative = inhibition) at 1uM [%]
COc1ccc(N2CCCCn3c2nc2c3c(=O)[nH]c(=O)n2C)cc1 | 2.58
O=C(/C=C/c1ccc(S(=O)(=O)N2CCOCC2)cc1)NCc1ccccc1F | 7.4
O=C(NC1CCCC1)C(c1ccc(N2CCOCC2)cc1)N(Cc1ccccc1)C(=O)c1ccco1 (centres unmarked) | 11
COc1ccc(Cn2nnc3c(=O)[nH]c(C4CCN(S(=O)(=O)c5ccc(C)cc5)CC4)nc32)cc1 | 14
Cc1nc(SCC(=O)O)c2oc3ccccc3c2n1 | 13.7
Cc1ccc(C(=O)O)cc1NC(=O)C1=CSCCO1 | 7.35
CC1CN(C(=O)CN2C(=O)NC(C)(c3ccccc3)C2=O)CC(C)O1 (centres unmarked) | 1.6
N#C/C(=C/c1ccc(Oc2ccc([N+](=O)[O-])cn2)cc1)C(=O)N1CCOCC1 | 11.1
CNC(=S)NCc1ccc2[nH]c3c(c2c1)CCCC3 | 4.36
CC(C)(CCl)C(=O)Nc1ccc(C(F)(F)F)cc1 | 4.94
Cc1ccc(-c2csc3nnc(SCC(=O)Nc4cccc(C)n4)n23)cc1 | -3.01
CCOc1ccc(N2C(=O)CC(Cc3ccccc3OC)C2=O)cc1 (centres unmarked) | 2.72
COc1ccc(-c2nc3ccccc3c(=O)n2NC(=O)c2cccnc2Cl)cc1OC | 11.2
CC1(C)Cc2c(c(=S)nc(-c3ccccc3)n2CCOCCO)CO1 | -1.9
[O-][N+]1=C2CCC/C(=N\O)C2=NC12CCCCC2 | 4.5
O=C(CCNC(=O)c1ccc([N+](=O)[O-])cc1)NNC(=O)c1ccncc1 | 13.8
Cc1nn(Cc2ccccc2Cl)c(C)c1NC(=O)CCCn1nc(C)c([N+](=O)[O-])c1C | 5.05
Cc1nc2cc(NS(=O)(=O)c3ccc(Br)cc3)ccc2n1C | 10.8
Cc1cc(=O)oc2cc(NS(=O)(=O)c3ccc(F)cc3)ccc12 | 9.03
Cc1ccccc1CSCC(=O)N1CCN(c2ccccc2)CC1 | -5.67
O=[N+]([O-])c1ccc(-n2nncc2-c2ccccc2)cc1 | 0.0452
COc1cc(CNCCc2ccc(S(N)(=O)=O)cc2)ccc1OCC(=O)N1CCCCC1.Cl | 19.1
COc1cc(C(=O)OCC(=O)Nc2cccc(S(=O)(=O)N3CCCC3)c2)ccc1OCC(C)C | 3.04

Structure (SMILES) | hERG current change (%, negative = inhibition) at 1uM [%]
c1ccc(Cn2c(Nn3cnnc3)nc3ccccc32)cc1 | -6.13
O=C1NNC(=O)C1c1ccccc1 | 13.7
OCCOc1ccc(CN2CCN(CCCc3ccccc3)C(CCO)C2)cc1 (centres unmarked) | -19.8
O=C(NCc1ccccc1)c1ccc(Cn2cc(C(F)(F)F)ccc2=O)cc1 | -6.19
Cc1ccc(NC(=O)C2CCCN2C(=O)Oc2ccccc2)c(C)c1 (centres unmarked) | 5.98
O=C(COC(=O)c1ccccc1C(=O)c1ccccc1)Nc1cccc([N+](=O)[O-])c1 | 7.97
Cc1nc(CN2CCN(C(=O)NC3(c4ccccc4)CC3)CC2)cs1 | 5.07
C=CCNC(=O)c1onc(CSc2ccccn2)c1C(=O)NCC=C | 6.66
S=C(NCc1cccs1)Nc1ccccc1 | 2.52
CN1CCCN(C(=O)c2ccc(Cl)c(S(=O)(=O)N(C)c3ccccc3)c2)CC1.Cl | 12
O=C(N=C1SC2CS(=O)(=O)CC2N1CCc1ccc(F)cc1)C1CCCCC1 (centres unmarked) | 8.34
CN(C)CCOCCOc1ccccc1-c1ccccc1.O=C(O)C(=O)O | -6.79
CCO.COc1cc(C2C(C#N)=C(N)N(N(C)C)C3=C2C(=O)CC(C)(C)C3)ccc1O (centres unmarked) | 11.4
O=Nc1c(-c2ccccc2)cc2ccccn12 | -1.34
CCN(CC)c1nc2c(c(=O)[nH]c(=O)n2C)n1Cc1ccccc1Cl | 14
CC(C)Sc1nnc2n(CCc3ccccc3)c(=O)c3c4c(sc3n12)COC(C)(C)C4 | 3.92
CN1C(=O)/C(=C\c2ccncc2)SC1=Nc1ccccc1 | 7.79
CC(=O)c1cc2c(cc1NS(=O)(=O)c1ccccc1F)OCO2 | 2.36
CCOc1ccc(-c2ccc(SCC(=O)NC3CCCCC3)nn2)cc1 | 17.9
CCOc1ccc(C(=O)N2CCN(c3ccccn3)CC2)cc1 | 10.1
Cc1ccc(NC2=CC(=O)CCC2)cc1C | 5.54
COc1ccc(/C=N/Nc2nc3ccccc3[nH]2)cc1OC | 4.83
COc1ccc(NC(=O)c2nc(-n3nc(C)cc3C)ccc2Cl)cc1Cl | 9.27

Structure (SMILES) | hERG current change (%, negative = inhibition) at 1uM [%]
Cc1ccc(NC(=O)N2CCC(NC(=O)C(C)(C)C)CC2)cc1 | 7.65
COc1cc(C)nc(Oc2ccc(OCCOc3ccc(C)cc3)nn2)n1 | 2.57
COCCN(CCOC)c1ncc(Cl)c(C(=O)c2c(C)cc3ccccn23)n1 | -4.84
CCN(CC)C(=S)SCC(=O)Nc1ccc(S(N)(=O)=O)cc1 | 13.7
COc1cc(CNCc2cc(OC)ccc2OC)cc(OC)c1.O=C(O)C(=O)O | 13.3
Cc1ccc(C)c(C(=O)CCC(=O)N2CCN(c3ncccn3)CC2)c1 | 14.1
Cc1ccccc1OCC(=O)N(Cc1cccs1)C1CCS(=O)(=O)C1 (centres unmarked) | -14.9
Cc1cc(=O)[nH]c(N=N/C(=N/Nc2ccccc2C)c2ccccc2)n1 | 2.06
CC(C)(C)c1ccc(CSc2nnc(-c3ccccc3NC(=O)c3ccccc3)o2)cc1 | 6.08
O=C(Nc1ccccc1)C1CCCN1/C=C/C(=O)C(F)(F)F (centres unmarked) | 2.92
O=C(CSc1nnc(-c2ccccc2)n1Cc1ccccc1)N1CCCC1 | 12
Cc1cccc(/C=N/N(CCO)C2=NS(=O)(=O)c3ccccc32)c1 | -2.07
CCn1c(CCCNC(=O)c2ccco2)nc2ccccc21 | 6.64
CCCCOc1ccc(-c2ncc(N)cn2)cc1 | 15
O=C1C=C(N2CCOCC2)CO1 | 21.7
COc1ccc(C)cc1NC(=O)CCC(=O)Nc1ccc2nc(N3CCN(C)CC3)cc(C)c2c1 | -3.63
COc1ccc(CNC(=O)CN(C(=O)c2cc3sccc3n2C)C2CCCC2)cc1 | 5.58
Cc1ccc2[nH]c(C)c(CC(=O)O)c2c1 | 29.7
CCOC(=O)c1sc(NC(=O)CCN2C(=O)C3CCCCC3C2=O)cc1C (centres unmarked) | 6.23
COc1ccc(CNC(=O)CCNS(=O)(=O)c2cc(Br)cnc2N)cc1 | 13.8
CCOC(=O)C1=C(C)N=c2s/c(=C/c3cccc([N+](=O)[O-])c3O)c(=O)n2C1c1ccc(OC)cc1OC (centres unmarked) | 17.6
C#CCNC(=O)C1=C[C@@H](C2CCCCC2)C[C@@H](OCc2ccc(CO)cc2)O1 | 11.2
O=C(Nc1cccc(F)c1)Nc1ccnn1C1CCN(C(=O)CCN2CCCO2)CC1 | -11.4

Structure (SMILES) | hERG current change (%, negative = inhibition) at 1uM [%]
O=C(O)c1ccc(Nc2cnc3ccccc3n2)cc1 | 9.11
N#Cc1ccc(C23CC4CC(CC(C4)C2)C3)[nH]c1=O | 6.36
COc1cc2ccccc2cc1C(=O)Nc1ccc(N2CCN(C)CC2)cc1 | 6.86
Cc1ccc(C(=O)N2CCCC2)cc1S(=O)(=O)Nc1cccc(C)c1C | 8.05
O=C(NCc1cccnc1)C1CCN(S(=O)(=O)N2CCOCC2)CC1 | 3.6
Cc1ccc(NC(=O)C[n+]2ccccc2)cc1[N+](=O)[O-].[Cl-] | 6.44
CN1/C(=C\C=N\O)C(C)(C)c2ccccc21 | 14.7
COc1cc2nc(NC(=O)c3ccco3)sc(=O)c2cc1OC | 6.25
COc1ccccc1NC(=O)CSc1nnc(-c2ccco2)n1Cc1ccco1 | -11.9
C=CCSc1nnc2nc3[nH]c4c(C)cccc4c3nn12 | 13.9
COC(=O)c1ccc(COc2ccc(/C=C(\C#N)c3nc4ccccc4[nH]3)cc2OC)o1 | 16.2
O=C(COC(=O)C1CCC1)Nc1cc(S(=O)(=O)N2CCCCC2)ccc1Cl | 6.48
O=C(c1cccn(Cc2ccc(Cl)c(Cl)c2)c1=O)N1CCOCC1 | -7.6
CCN1CCN(C(=O)C2CC(c3ccc(F)cc3)=NO2)CC1 (centres unmarked) | 5.31
CN1C(C(=O)Nc2ccccn2)=C(O)c2ccccc2S1(=O)=O | 4
O=C(CS(=O)(=O)c1ccc2ccccc2c1)N1CCCCCC1 | 4.5
COc1cccc(C(=O)Nc2nnc(SCC(=O)NC3CC3)s2)c1 | 15.6
CN(C(=O)CCN1C(=O)c2ccccc2C1=O)C1CCCCC1 | 5.67
Cc1cc(Cl)ccc1OC(C)C(=O)Nc1ccc(S(=O)(=O)Nc2cnc3ccccc3n2)cc1 (centres unmarked) | 8.79
CC(C)(C)c1nnc(NC(=O)CCS(=O)(=O)Cc2ccccc2)s1 | 14.6
